# The campaign covered roughly 410,000 compounds. About 6,400 (1.6%) were called active. This list was built around the results that the source calls inconclusive (neither active nor inactive); the mix of calls is not that of the screen. Calls come from the whole dose curve; as a rule, active = well fitted inhibition curve with a large enough effect; inconclusive = small, poorly fitted or top-dose-only effect; inactive = no such curve, though single readings can be large or run the other way. Potencies of inconclusive entries are left out as doubtful fits.
# Molecular target: Glucagon-like peptide 1 receptor (Homo sapiens) (UniProt P43220)
# Assay: qHTS of GLP-1 Receptor Inverse Agonists (Inhibition Mode); note: nearly all actives have a fitted effect of over 55% in size
# Details: HEK293 GLP-1R CRE-luciferase, luminescence, 24 h; Potency: GLP-1R form is constitutively active unless noted; activity change, negative = inhibition: at 38.3 µM (top of the series) unless noted
# Text: The overall goal of this project was to develop a novel assay for discovering small molecule ligands for class B1 G protein-coupled receptors (GPCRs). Very few agonists (or inverse agonists in inhibition mode) with generally weak activity for this entire group of physiologically important receptors are known to date. To establish proof-of-principle that this critical bottleneck can be overcome with a suitable screening approach, our studies focused on the class B1 receptor for glucagon-like peptide-1 (GLP-1R), a potential therapeutic target for diabetes and neurodegenerative disease. The assay was developed using a cell-based functional readout. Toward this goal, stably transfected HEK293 cell clones were established that co-express (i) a cAMP-responsive luciferase reporter gene, and (ii) constitutively active GLP-1R that upon ligand interaction inhibit (inverse agonists) the luciferase activity. In addition, two control cell lines were developed: (i) one that express only the cAMP-responsive reporter gene to enable initial exclusion of GLP-1R independent effects of candidate probes; and (ii) one with the reported gene cloned with another constitutively active orphan receptor GPR119 to enable exclusion of GLP-1R independent inhibitor effects of candidate inverse agonists. To that end, this assay was optimized for 1536-well format and screened against the MLSMR. […] NIH Molecular Libraries Probe Production Network [MLPCN] NIH Chemical Genomics Center [NCGC] Grant: NS064851 PI Name: Martin Beinborn, Tufts Medical Center
# Six ul of cell suspension (200 cells/uL in DMEM + 10% Nu serum + 1% pen-strep) is dispensed in a white solid 1536-well plate. The plates are incubated for 12 hours at 37 deg C at 5% CO2 followed by addition of 23 nL compounds. After 24 hr incubation at 37 deg C and 5% CO2, 3 uL of luciferase assay detection reagent is added. A luminescence read is obtained on the PerkinElmer Viewlux after 12 min incubation at room temperature.
# % is set by controls: 0 for no effect and ±100 for the full control effect; potency is the fitted concentration of half-maximal effect; tags give direction and shape of the fitted curve.
# Chain of UniProt P43220 (P43220 whole entry, looked up): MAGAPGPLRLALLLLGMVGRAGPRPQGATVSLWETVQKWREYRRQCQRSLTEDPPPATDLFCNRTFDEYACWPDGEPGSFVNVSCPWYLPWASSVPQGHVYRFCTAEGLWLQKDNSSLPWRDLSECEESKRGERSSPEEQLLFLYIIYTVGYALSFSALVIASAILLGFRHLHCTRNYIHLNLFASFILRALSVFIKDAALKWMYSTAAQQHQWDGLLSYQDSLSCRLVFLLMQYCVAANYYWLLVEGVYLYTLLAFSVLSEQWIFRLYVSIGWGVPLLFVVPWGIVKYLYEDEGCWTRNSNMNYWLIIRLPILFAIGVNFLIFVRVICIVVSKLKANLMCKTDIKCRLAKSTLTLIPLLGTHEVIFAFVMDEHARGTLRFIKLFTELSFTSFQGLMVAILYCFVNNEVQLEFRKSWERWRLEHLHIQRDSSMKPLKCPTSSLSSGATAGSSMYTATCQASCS
Structure (SMILES),Potency,"activity change, negative = inhibition"
CC1CN(c2ccc([N+](=O)[O-])cc2Cl)CCN1 (stereo not given),"inconclusive [inhibitor, single point]",
CN(C)C(=O)On1c(-c2ccccc2)nc2ccc(Cl)cc21,"inconclusive [inhibitor, partial curve, poor fit]",
CCOC(=O)CNC(=O)N1Cc2cc(N3CCCCC3)ccc2-n2nncc2C1,,inactive: 23.3%
Cc1ccc(N=C2N=C(N)c3ccccc32)c(C)c1,"inconclusive [inhibitor, single point]",
Clc1cccc(CN2CCCCC2c2cccnc2)c1 (stereo not given),"inconclusive [inhibitor, single point]",
CCC(=Nc1ccc(OC)cc1OC)c1c(O)n(C2CCCCC2)c(=O)[nH]c1=O,"inconclusive [inhibitor, partial curve, poor fit]",
N=C(N)c1c(O)n(C2CCCCC2)c(=O)n(C2CCCCC2)c1=O,active: 4.47 µM [setting not given],
COc1cccc(C(=O)C2CCCN(Cc3ccc4nsnc4c3)C2)c1 (stereo not given),"inconclusive [inhibitor, partial curve, poor fit]",
C=CC[C@@H](CC/C=C/C=C/CC/C=C\[C@@H]1CSC([C@@H]2C[C@@H]2C)=N1)OC,"inconclusive [inhibitor, full curve]",
CCOC(=O)c1cccc(NC(=O)c2cnc(N3CCCCC3)c3ccccc23)c1,"inconclusive [inhibitor, single point]",
CCOC(=O)C1(c2ccccc2)CCN(CC(=O)c2ccc(NC(C)=O)cc2)CC1,"inconclusive [inhibitor, single point]",
CCOc1ccccc1CNCCc1ccc2c(c1)OCO2,"inconclusive [inhibitor, partial curve, poor fit]",
O=c1[nH]c(=O)n(Cc2ccccc2Cl)c(O)c1/C=C1/C=CC=N1,"inconclusive [inhibitor, single point]",
COc1ccc(NC(=O)c2oc3ccc(S(=O)(=O)N(C)C4CCCCC4)cc3c2C)cc1,"inconclusive [inhibitor, partial curve, poor fit]",
Cc1cc(/C=C2\C(=O)NC(=O)N(Cc3ccccc3)C2=O)c(C)n1-c1ccc(Cl)c(C(=O)O)c1,,inactive: 11%
O=[N+]([O-])c1ccc(N2CCCC(C(F)(F)F)C2)c2ccncc12 (stereo not given),,inactive: -20.1%
C/C(=N\N1CCCCCC1)c1c(O)n(-c2ccc(Cl)cc2)c(=O)[nH]c1=O,"inconclusive [inhibitor, full curve, poor fit]",
CCC(c1nnnn1Cc1ccccc1)N1CCC(n2c(=O)[nH]c3ccccc32)CC1 (stereo not given),"inconclusive [inhibitor, partial curve, poor fit]",
CCOc1ccc(CNCCc2ccc3c(c2)OCO3)cc1,,inactive: -20.7%
S=P(N1CCOCC1)(N1CC1)N1CC1,"inconclusive [inhibitor, partial curve]",

Structure (SMILES),Potency,"activity change, negative = inhibition"
C[C@]12CCC3C(CC[C@H]4C[C@@H](O)CC[C@]34C)C1CC[C@@H]2OC(=O)[C@H](N)CCCCN (stereo not given in full),"inconclusive [inhibitor, full curve, poor fit]",
CCCCCn1c(=O)c(C(=O)NCc2ccc(Cl)cc2)c(O)c2ccccc21,,inactive: 0.408%
CCCCn1nnnc1C(CCc1ccccc1)N1CCC(n2c(=O)[nH]c3ccccc32)CC1 (stereo not given),"inconclusive [inhibitor, partial curve, poor fit]",
Cc1ccc(CN2CCCN(Cc3ccc(Cl)cc3)S2(=O)=O)cc1,"inconclusive [inhibitor, single point]",
COc1cc(/C=C/c2nc3ccccc3c(=O)n2-c2ccc(Br)c(C)c2)ccc1O,"inconclusive [inhibitor, partial curve, poor fit]",
CN(Cc1ccccc1)C(=O)CN1CCCC1=O,,inactive: 11.4%
CCCCCSc1cc(OC)c(CCN(C)C)cc1OC,"inconclusive [inhibitor, partial curve, poor fit]",
Nc1c(C(=O)Nc2ccc(OC(F)(F)F)cc2)sc2nc3c(cc12)N1CCC3CC1,"inconclusive [inhibitor, full curve, poor fit]",
CCOC(=O)c1ccc(NC(=O)Nc2cc3c(cc2N2CCCCC2)n(CC)c(=O)n3CC)cc1,active: 10 µM,
CC(C)Oc1ccc(CNC(=O)Oc2ccccc2)cc1,"inconclusive [inhibitor, partial curve, poor fit]",
Cc1cc(N2CCNCC2)nc2ccccc12,"inconclusive [inhibitor, partial curve, poor fit]",
OC(CN1CCC(c2c[nH]c3ccccc23)CC1)C(F)(F)F (stereo not given),"inconclusive [inhibitor, single point]",
COc1ccc(NC(=O)c2c(C)nn(Cc3ccccc3Cl)c2Cl)cc1Cl,,inactive: 10.6%
COC(=O)C1=C(c2ccc(Cl)c(C(F)(F)F)c2)C[C@@H]2CC[C@H]1N2C(=O)NCc1cc(C)oc1C(F)(F)F,"inconclusive [inhibitor, partial curve, poor fit]",
CC12CCC(O)CC1CCC1C2CCC2(C)C(C3=CC(=O)OC3)CCC12O (stereo not given),active: 1.12 µM [setting not given],
CN1C2CCC1CC(OC(=O)c1cccc(O)c1)C2 (stereo not given),"inconclusive [inhibitor, partial curve, poor fit]",
Cc1cccc(N2C(=O)/C(=C/c3ccc(N4CCN(C)CC4)o3)C(=O)NC2=S)c1C,,inactive: 17.2%
CCCOC(=O)c1ccc(-[n+]2c(-c3ccccc3)cc(-c3ccccc3)cc2-c2ccccc2)cc1,"inconclusive [inhibitor, partial curve, poor fit]",
CC(Cc1ccccc1)NC(=O)/C=C/c1ccc(Cl)cc1 (stereo not given),"inconclusive [inhibitor, single point]",
COc1ccc(C(=O)Oc2cccc3cccnc23)cc1S(=O)(=O)N1CCOCC1,"inconclusive [inhibitor, partial curve, poor fit]",
